Reference: paper PMC4336329 (PLoS ONE, 2015)
The campaign covered roughly 310,000 compounds. About 14,000 (4.5%) showed an effect of 50% or more. The effect is printed as a negative number. The list shows a part of the results.

Target: human ether-à-go-go-related gene (hERG) potassium channel (human, UniProt Q12809)
Assay: primary screen, population patch clamp on CHO cells stably expressing hERG
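Further: peak tail current of the secondary pulse compared with the same well before compound.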

Chain of human ether-à-go-go-related gene (hERG) potassium channel (Q12809 whole entry, looked up): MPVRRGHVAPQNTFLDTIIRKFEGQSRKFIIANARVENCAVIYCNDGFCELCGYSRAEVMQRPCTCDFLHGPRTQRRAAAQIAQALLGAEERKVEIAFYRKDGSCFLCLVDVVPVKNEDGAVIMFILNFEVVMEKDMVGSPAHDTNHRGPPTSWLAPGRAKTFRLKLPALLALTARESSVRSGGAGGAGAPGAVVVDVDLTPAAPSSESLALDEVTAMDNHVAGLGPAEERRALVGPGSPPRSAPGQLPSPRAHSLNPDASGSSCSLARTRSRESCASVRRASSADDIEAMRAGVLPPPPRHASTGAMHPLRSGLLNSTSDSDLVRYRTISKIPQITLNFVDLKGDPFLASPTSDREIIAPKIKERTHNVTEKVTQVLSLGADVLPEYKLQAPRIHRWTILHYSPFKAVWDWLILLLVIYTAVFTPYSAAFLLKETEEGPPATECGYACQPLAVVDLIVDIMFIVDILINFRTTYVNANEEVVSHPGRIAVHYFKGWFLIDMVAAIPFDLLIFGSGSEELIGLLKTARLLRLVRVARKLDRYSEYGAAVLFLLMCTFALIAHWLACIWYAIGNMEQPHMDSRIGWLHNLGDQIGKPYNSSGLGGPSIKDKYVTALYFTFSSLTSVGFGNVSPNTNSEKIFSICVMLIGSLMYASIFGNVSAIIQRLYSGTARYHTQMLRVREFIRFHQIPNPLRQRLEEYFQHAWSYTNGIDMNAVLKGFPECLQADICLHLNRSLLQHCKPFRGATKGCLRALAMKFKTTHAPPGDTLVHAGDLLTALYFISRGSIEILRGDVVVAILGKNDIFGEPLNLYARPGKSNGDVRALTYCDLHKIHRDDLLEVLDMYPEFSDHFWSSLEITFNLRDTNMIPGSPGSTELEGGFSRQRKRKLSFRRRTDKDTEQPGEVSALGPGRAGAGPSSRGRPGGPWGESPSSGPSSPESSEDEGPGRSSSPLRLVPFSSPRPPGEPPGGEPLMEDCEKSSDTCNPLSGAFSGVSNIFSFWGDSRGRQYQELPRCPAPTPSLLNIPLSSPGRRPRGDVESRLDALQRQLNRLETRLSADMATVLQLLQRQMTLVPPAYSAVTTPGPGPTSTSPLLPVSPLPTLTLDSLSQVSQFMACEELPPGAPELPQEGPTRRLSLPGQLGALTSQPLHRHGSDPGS

| Compound | hERG current change (%, negative = inhibition) at 10uM [%] |
| --- | --- |
| O=C(CNC(=O)c1ccccc1)OC1CCCCC1 | -1.49 |
| COc1ccc(CCNC(=O)CN2CCN(Cc3ccccc3F)C2=O)cc1OC | 8.26 |
| CN(C)S(=O)(=O)c1cccc(NC(=O)COC(=O)c2cc3ccccc3oc2=O)c1 | -4.96 |
| Cc1cc(C)nc(/N=C2\NC(=O)CC(C(=O)O)N2c2ccc(F)c(Cl)c2)n1 (centres unmarked) | 21.5 |
| O=C(CNC(=O)c1ccc(N2C(=O)c3ccccc3C2=O)cc1)OCC(=O)c1cccc2ccccc12 | 27.1 |
| CCCCc1n[nH]c2c1/C(=N/O)CC(C)(C)C2 | -4.12 |
| CC(C)OC(=O)CC(=O)CSc1nc2c(cc1C#N)CCCC2 | -12.7 |
| O=C(NCCNc1ccc(Cl)cc1[N+](=O)[O-])c1ccccc1F | 3.81 |
| Cc1cc(/C=C2/NC(=O)NC2=O)c(C)n1-c1sc2c(c1C#N)CCCC2 | 3.07 |
| O=C(Cn1cnc2c(oc3ccccc32)c1=O)NCc1ccco1 | -4.95 |
| CCc1ccccc1NC(=O)CN(c1ccc(OC)cc1OC)S(=O)(=O)c1ccccc1 | 6.82 |
| CCc1cccc(CC)c1NC(=O)/C(C#N)=C/c1ccccc1C(F)(F)F | 21.4 |
| CCC(C)(C)NC(=O)C(c1ccc(F)cc1)N(Cc1ccco1)C(=O)c1cnccn1 (centres unmarked) | -1.65 |
| Cc1noc(C)c1S(=O)(=O)N1CCCC(C(=O)N2CCC(C)CC2)C1 (centres unmarked) | -3.8 |
| CC(C)CNC(=O)COC(=O)Cc1ccc(Cl)cc1 | 12.5 |
| Cc1nc(-c2ccncc2)sc1C(=O)Nc1ccc(Cl)cc1 | 13.3 |
| O=C(NCC1CCCO1)c1cc(C(=O)C2CCCCC2)c[nH]1 (centres unmarked) | 15.4 |
| Cc1c(OC(C)C(=O)NC(Cc2c[nH]c3ccc(O)cc23)C(=O)O)ccc2c1oc(=O)c1ccccc12 (centres unmarked) | 1.93 |
| COc1cc(C2C(C(=O)c3cccs3)=C(O)C(=O)N2c2cc(C)on2)ccc1O (centres unmarked) | -0.278 |
| CCOc1ccc(-c2[nH]ncc2-c2ccccc2)c(O)c1 | 0.809 |
| COc1cc(/C=C/C(=O)Nc2cccc(S(=O)(=O)N3CCOCC3)c2)ccc1OCC#N | -25.8 |
| CC(C)CCN1CCN(CC#Cc2ccccc2)CC1CCO (centres unmarked) | -49.9 |

| Compound | hERG current change (%, negative = inhibition) at 10uM [%] |
| --- | --- |
| COc1ccc(-n2nc(C(=O)Nc3ccc4c(c3)OCO4)c3c4ccccc4n(C)c3c2=O)cc1 | 15.5 |
| COc1ccc(CNC(=O)C(C)n2ccc3cc(S(=O)(=O)N4CCCCCC4)ccc32)cc1 (centres unmarked) | 1.82 |
| CCOC(=O)c1c(C)c(C(=O)Nc2cc(F)ccc2F)c(C)n1C | 13.9 |
| Cc1onc(-c2ccccc2)c1NC(=O)N(CCC#N)Cc1cccs1 | 7.93 |
| CCn1c(SCC(=O)Nc2ccccc2Cl)nnc1C1CC1 | 6.78 |
| CCN(CC)S(=O)(=O)c1cc(C(=O)NC2=NCCS2)ccc1Cl | 4.64 |
| CC(C)c1nc(C#N)c(NN)o1 | 14.7 |
| COc1ccccc1NC(=O)c1ccc(CSc2ccccc2)o1 | -8.57 |
| COc1cccc(OCc2cc(C(=O)N3CCC(c4ccncc4)CC3)no2)c1 | -40.9 |
| Cc1cc(C)nc(SCc2nnc(SCC(N)=O)o2)n1 | 15.7 |
| CCCCCC(=O)N/N=C/c1cc(Br)c(O)c(OC)c1 | -1.34 |
| NC(=O)C1CCN(C(=O)Cc2ccsc2)CC1 | -1.15 |
| COc1ccc(NC2=Nc3ccccc3N3C2=Nc2c(c(C)nn2-c2ccc(C)cc2)C3c2cccnc2)cc1 (centres unmarked) | 12.3 |
| Cc1ccc(NC(=O)c2nc[nH]c2C(=O)N[C@H](C)c2ccccc2)cc1 | 21.4 |
| COC(=O)c1ccc(/C=N/NC(=O)C2CC(=O)N(c3ccc(F)cc3)C2)cc1 (centres unmarked) | 3.98 |
| COc1ccccc1CCC(=O)Oc1ccc(C#N)cc1OC | -3.46 |
| CCN1CCN(Cc2nc3c(c(=O)n(C)c(=O)n3C)n2C(C)C(C)=O)CC1 (centres unmarked) | 12.1 |
| CC(OC(=O)c1ccccc1OCc1ccc(Cl)cc1)C(N)=O (centres unmarked) | 14.3 |
| Cc1ccc(C(=O)N(CCCN(C)C)c2nc3ccc(Cl)cc3s2)cc1C.Cl | -56.4 |
| Cc1ccc(C2CC(c3ccccc3OC(F)F)Nc3ncnn32)cc1 (centres unmarked) | -22.5 |
| COc1ccc(/C=N/NC(=O)c2ccc(C)cc2)cc1CN1CCN(c2ccc(F)cc2)CC1 | -69.8 |
| CCNC(=O)c1ccc(CSc2ccc(Cl)cc2)cc1 | -3.08 |
